Assay results taken from patent publication EP4725508A1, “LIGAND-DRUG CONJUGATE HAVING FREE PAYLOAD RECOVERY UNIT” (RemeGen Co., Ltd., priority 2024, dated 2025).

Target: T1, OVA (UniProt P01012 2-386)
T1 construct: Unconjugated carrier protein used as negative antigen; also called negative protein OVA
T1 sequence (looked up): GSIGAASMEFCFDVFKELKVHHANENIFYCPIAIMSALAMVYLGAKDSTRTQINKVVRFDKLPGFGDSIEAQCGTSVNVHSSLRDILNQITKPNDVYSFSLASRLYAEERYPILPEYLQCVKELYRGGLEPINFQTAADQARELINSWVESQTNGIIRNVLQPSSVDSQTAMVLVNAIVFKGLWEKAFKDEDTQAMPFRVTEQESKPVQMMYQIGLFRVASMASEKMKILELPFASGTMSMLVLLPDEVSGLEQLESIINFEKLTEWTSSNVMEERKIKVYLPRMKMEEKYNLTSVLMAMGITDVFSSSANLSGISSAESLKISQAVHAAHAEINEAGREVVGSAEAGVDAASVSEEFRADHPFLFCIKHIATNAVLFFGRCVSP
Test: ELISA, OVA coated at 1 µg/mL, anti-human IgG HRP

B1: PP-1A-#600 (PP-1A-#85 peptide + MSLN VHH+ Fc) (Fc fusion)
chain: ACDESHGVPHTSGMCGGGSEVQLVESGGGLVQPGGSLRLSCAVSGFPLSSYGMSWARQAPGEERELVAHIGTTGGSTNYADSVKGRFTISRDNAKNSVYLQMNSLRAEDTAVYYCRARRQMPSNEYWGQGTTVTVSS[human IgG1 Fc not listed]
notes: Expressed in E. coli BL21; also called antibody fusion peptide; PP-1A-#600 fusion molecule
B1: no binding.
